Test results from patent US20260193317A1, “COMBINATION THERAPY WITH ACTRIIB RECEPTOR VARIANTS AND GLP-1 AGONISTS” (35PHARMA Inc., priority 2023, published 2026).

T1: BMP-10 (UniProt O95393 317-424)
T1 sequence (looked up): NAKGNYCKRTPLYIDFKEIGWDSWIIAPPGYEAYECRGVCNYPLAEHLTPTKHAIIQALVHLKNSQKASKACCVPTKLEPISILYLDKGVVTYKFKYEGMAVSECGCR

T2: BMP-9 (UniProt Q9UK05 320-429)
T2 sequence (looked up): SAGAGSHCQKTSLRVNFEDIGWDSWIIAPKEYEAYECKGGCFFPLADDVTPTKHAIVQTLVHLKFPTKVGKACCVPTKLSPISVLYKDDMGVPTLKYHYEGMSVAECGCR

T3: recombinant human activin A (human, UniProt P08476 311-426)
T3 sequence (looked up): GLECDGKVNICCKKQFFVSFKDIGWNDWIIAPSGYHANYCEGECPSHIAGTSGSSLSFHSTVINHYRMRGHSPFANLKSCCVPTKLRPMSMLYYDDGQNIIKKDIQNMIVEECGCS

T4: activin B (UniProt P09529 293-407)
T4 sequence (looked up): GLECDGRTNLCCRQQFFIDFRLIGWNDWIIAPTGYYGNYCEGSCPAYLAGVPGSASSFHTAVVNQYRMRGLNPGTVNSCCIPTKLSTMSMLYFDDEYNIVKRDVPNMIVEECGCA

T5: BMP-10 (Homo sapiens, UniProt O95393)
T5 sequence (O95393 317-424): T1 sequence (looked up)

B1: P1229 (Fc fusion)
chain: ETRECIYYNANWELERTNQSGLERCEGEQDKRWHCYASWRNSSGTIELVKKGCWLDDFNCYDRQECVATEENPQVYFCCCEGNFCNERFTHLPEAGGPEVTYEPPPTGGGGSGGGGSGG[human IgG1 Fc and a few adjoining residues not spelt out]
B2: P750: hActRIIB L33R, 14 aa linker, IgG1-DL Fc; SEQ ID 175 (protein)
chain: ETRECIYYNANWELERTNQSGLERCEGEQDKRRHCYASWRNSSGTIELVKKGCWLDDFNCYDRQECVATEENPQVYFCCCEGNFCNERFTHLPEAGGPEVTYEPPPTGGGGSGGGGSGG[human IgG1 Fc and a few adjoining residues not spelt out]
B3: P1373 (Fc fusion)
chain: ETRECIYYNANWELERTNQSGLERCEGEQDKRWHCYASWRNSSGTIELVKKGCWLDDFNCYDRQECVATEENPQVYFCCCEGNFCNERFTHLPEAGGPEVTYEPPPTGGGGSGGGGSGGGGSGG[human IgG1 Fc and a few adjoining residues not spelt out]

What was measured:
BMP-10 [1] = biological target: T1, BMP-10; test: cell-based or functional assay
BMP-9 [2] = biological target: T2, BMP-9; test: cell-based or functional assay
GDF-8 = GDF-8 (UniProt O14793 267-375); test: cell-based or functional assay
GDF-11 = GDF-11 (UniProt O95390 299-407); test: cell-based or functional assay
Chain of GDF-11 (O95390 299-407 limits assumed): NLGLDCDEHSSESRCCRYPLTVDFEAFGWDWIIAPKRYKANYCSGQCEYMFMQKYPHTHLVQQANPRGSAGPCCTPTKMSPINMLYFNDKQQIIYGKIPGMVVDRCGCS

[3] = biological target: T3, recombinant human activin A; test: cell-based or functional assay
activin B = biological target: T4, activin B; test: cell-based or functional assay
BMP-9 [4] = biological target: T2, BMP-9; test: cell-based or functional assay; remark: listed apart in the source
[5] = Body weight gain with twice weekly injections in wild-type male mice; assay type: in vivo; details: P750 at 1 mg/kg s.c. twice weekly, 11 days
Protocol: Additional in vivo evaluation of exemplary agents, P750 and P1229, was conducted and compared to P75. P750 (1, 10, and 25 mg/kg), P1229 (5 and 25 mg/kg), and P75 (25 mg/kg) were injected subcutaneously twice weekly in wild-type male mice (n=6/group), over the course of 11 days (P750; FIG. 7A) or 7 days (P1229 and P75; FIG. 7B). P750 (10 and 25 mg/kg), P1229 (5 and 25 mg/kg), and P75 (25 mg/kg) induced a significant body weight gain as early as Day 3 (between 5 and 10%), up until the end of the study (FIGS. 7A-7B).

[6] = SEC-HPLC monomer and HMW content of purified fusion proteins; assay type: physicochemical; details: after Protein A purification
BMP-10 [7] = biological target: T5, BMP-10; test: BMP-reporter HepG2 cell-based assay: BMP-10 neutralization

Molecule	BMP-10 IC50; BMP-reporter HepG2 cells (BMP-10 [1]) [nM]	BMP-9 IC50; BMP-reporter HepG2 cells (BMP-9 [2]) [nM]	GDF-8 IC50; TGFβ-reporter HEK293 cells (GDF-8) [nM]	GDF-11 IC50; TGFβ-reporter HEK293 cells (GDF-11) [nM]	Activin A IC50; TGFβ-reporter HEK293 cells [3] [nM]	Activin B IC50; TGFβ-reporter HEK293 cells (activin B) [nM]	fold loss of BMP-9 potency relative to P75; BMP-reporter HepG2 cells (BMP-9 [4]) [fold]	body weight [5]	high molecular weight (HMW) content (SEC-HPLC) [6] [%]	monomer content (SEC-HPLC) [6] [%]	inhibition potency on BMP-10 relative to P75 (BMP-10 [7])
B1	> 100	> 1000	0.33	0.39	0.7	1.8	> 100	–	–	–	–
B2	–	–	–	–	–	–	–	modest increase in body weight, which only reached statistical significance on Day 7	4	96	unchanged or modestly reduced
B3	> 100	> 1000	0.4	0.46	0.53	2.9	> 100	–	–	–	–
